# Data published in PubChem BioAssay (Tox21).
# Records with an inconclusive call do not appear. Unless noted, the call rests on the fitted dose curve; in most records, active means well fitted curve in the direction sought with a large enough effect in the repeat runs; inconclusive means weak or mixed curves; inactive means no such curve, though single readings can be large; an effect the other way counts as inactive or inconclusive. The source holds several records for some structures; these can differ, active in one and inactive in another. Some entries of the source have several records that differ or are many. The list is limited to them. An entry can have further records. The values listed for one entry are repeats across runs, samples, wells, individuals or studies. A tag in brackets gives the origin of a value. Letters hold for one entry only.
# What was measured:
# [1] = qHTS assay for small molecules that induce genotoxicity in human embryonic kidney cells expressing luciferase-tagged ATAD5 - cell viability (AID 651634; calls by dose curve; further: nearly all actives have a fitted effect of over 25% in size)
# Summary of the method: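 HEK293T cells carrying luciferase-tagged ATAD5, 2,000 cells/well, exposed to compound for 15.5 hr at 37C. Viability read as live-cell protease activity by CellTiter-Fluor fluorescence after 30 min at 37C.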
# [2] = qHTS assay to identify small molecule antagonists of the glucocorticoid receptor (GR) signaling pathway - cell viability counter screen (AID 720693); further: nearly all actives have a fitted effect of over 55% in size
# Text: National Center for Advancing Translational Sciences [NCATS]
# NIH Chemical Genomics Center [NCGC]
# U.S. Environmental Protection Agency [EPA]
# National Institutes of Environmental Health Sciences [NIEHS]
# National Toxicology Program [NTP]
# U.S. Food and Drug Administration [FDA]
# The Glucocorticoid receptor (GR) is one of the members of the nuclear receptor family of ligand-dependent transcription factors. GR plays a critical role in carbohydrate, protein and lipid metabolisms and programmed cell death. CellSensor GR-bla HeLa cell line (Invitrogen) contains a beta-lactamase reporter gene under the control of the glucocorticoid response element stably integrated into HeLa cells, a cervical cancer cell line that expresses glucocorticoid receptor. The activation of the reporter gene under culture conditions can be detected by fluorescence intensity. […]
# The GR-bla HeLa cells were dispensed at 1500 cells/5 ul/well in 1536-well black wall/clear bottom plates using a Multidrop Combi (ThermoFisher Scientific, Waltham, MA) dispenser. […] After 1 uL of LiveBLAzerTM B/G FRET substrate was added using a Flying Reagent Dispenser (Aurora Discovery, San Diego, CA), the plates were incubated at room temperature (RT) for 2 hours, and fluorescence intensity was measured by an Envision plate reader (PerkinElmer, Shelton, CT). […] The luminescence was measured using a ViewLux (Perkin Elmer) plate reader.
# [3] = qHTS assay to identify small molecule agonists of the constitutive androstane receptor (CAR) signaling pathway - cell viability counter screen (AID 1224836); further: nearly all actives have a fitted effect of over 45% in size
# Summary of the method: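 HepG2-CYP2B6-hCAR, 2500 cells/well, 4 h pre-incubation; cpd 15 conc + PK11195 0.75 uM final; 23 h, 37 C/5% CO2; CellTiter-Fluor, fluorescence.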
# Potency means the concentration at half of the fitted maximal effect.
smiles,measurement,setting,value
Oc1c(I)cc(Cl)c2cccnc12,Potency,[1],inactive [sample A] and active: 27.3 µM [sample B]
CCN(CC)C(=O)c1cc(S(=O)(=O)Cc2ccccc2)c(N2CCC(c3ccccc3)CC2)cc1N(CC)CCN(C)C,Potency,[2],active: 23.9 µM [sample A] and inactive [sample B]
Cc1c2ccccc2c(C)c2c1ccc1ccccc12,Potency,[3],inactive [sample A] and active: 54.5 µM [sample B]
